About 740 (0.21%) of roughly 360,000 compounds were called active. The inconclusive results got no clear call from the source; some entries with a clear call stand among them for comparison. Calls follow the shape of the dose curve; as a rule, active = well fitted inhibition curve with a large enough effect; inconclusive = small, poorly fitted or top-dose-only effect; inactive = no such curve, though single readings can be large or run the other way. No potency is given beside an inconclusive call; the fits are too rough.
system: Plasmodium falciparum AMA1 (3D7) - RON2 peptide interaction; assay: qHTS for Inhibitors of AMA1-RON; Towards Development of Antimalarial Drug Lead: Primary Screen; conditions: AlphaScreen AMA1-biotinylated RON2 peptide binding; activity change, negative = inhibition: at 58.2 µM (top of the series) unless noted; also: nearly all actives have a fitted effect of over 45% in size;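 as to activity change, negative = inhibition: 0% = vehicle wells and -100% = peptide control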
How it was run: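 AMA1 (3D7) with his tag at 25 nM final met compounds first, then biotinylated RON2 peptide at 25 nM; detection used donor plus acceptor beads, 10 µg/mL apiece, read by AlphaScreen after 30 min at room temperature.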
Potency is read from the fitted curve at half-maximal effect; tags tell the direction and shape of the fitted curve.

SMILES	Potency	activity change, negative = inhibition
CC(Sc1ccccc1)C(=O)N1CCN(S(=O)(=O)c2cccc(Br)c2)CC1 (stereo unspecified)	inconclusive [inhibitor, partial curve]	
CCCCC[C@H](C)N1C[C@H](COCc2ccccc2)Oc2cc(N3CC[C@@H](N(C)C)C3)ccc2S1(=O)=O	inconclusive [inhibitor, partial curve]	
CNC(=S)N1CCN(c2nc(-c3ccc(Cl)cc3)cs2)CC1	inconclusive [inhibitor, partial curve]	
COC(=O)C(Cc1c[nH]c2ccccc12)NC(C)=O (stereo unspecified)		inactive: -5.51%
COc1cc2c(cc1O)C[C@H]1NCCc3cc4c(c-2c31)OCO4	inconclusive [inhibitor, single point]	
O=C(COC(=O)c1ccccc1C(=O)N1CCN(c2ccccc2)CC1)Nc1ccccc1		inactive: -5.68%
Cc1ccc(S(=O)(=O)N/N=C/c2cccc3c2OCCO3)cc1		inactive: 10.9%
CN(C)Cc1c(O)c(Cl)cc2c3c(c(=O)oc12)CCCC3	inconclusive [inhibitor, partial curve]	
O=C(Nc1ccc(Cl)c(S(=O)(=O)N2CCOCC2)c1)C1CCC1		inactive: -2.4%
Cc1ccc(C(=O)Nc2ccccc2-c2ccccc2)cc1S(=O)(=O)Nc1cccc(C)c1C		inconclusive: 3.84% [inhibitor]
Cc1ccc(CNC(=O)CNS(=O)(=O)c2cccc3nsnc23)cc1		inactive: 4.54%
O=C(CCc1ccc(O)c(O)c1)N/N=C/c1cc2c(cc1[N+](=O)[O-])OCO2	inconclusive [inhibitor, partial curve]	
COC(=O)/C(C#N)=C/c1c[nH]c2ccccc12	inconclusive [inhibitor, single point]	
CC(=O)c1sc(NC(=O)c2ccco2)nc1-c1ccccc1		inactive: -10.8%
CCN1C(=O)/C(=C2\C=Cc3cc(C)ccc3N2CC)OC1=S	inconclusive [inhibitor, partial curve]	
COc1ccc(OC)c(NC(=O)NCCc2cccc(Cl)c2)c1	inconclusive [inhibitor, full curve, poor fit]	
COc1cc(/C=C2/SC(=S)N(Cc3ccccc3)C2=O)cc(OC)c1O	inconclusive [inhibitor, single point]	
Cc1c(C(=O)NCc2ccccc2)sc(=O)n1Cc1ccccc1F		inactive: -1.53%
O=S(=O)(CCc1nnc(-c2ccccc2)o1)c1ccc2ccccc2c1		inactive: 7.83%
CN(CCCCOc1ccc(F)cc1)Cc1ccccc1	inconclusive [inhibitor, partial curve]	
CN(CC(=O)N1CCOCC1)S(=O)(=O)c1cc(Cl)ccc1Cl		inactive: 11.3%
Cc1onc(-c2ccccc2)c1C(=O)N/N=C/c1cn(C)c2ccccc12	inconclusive [inhibitor, full curve, poor fit]	
COc1ccc(OC)c(-c2csc(NC(=O)CSCc3c(C)noc3C)n2)c1	inconclusive [inhibitor, single point]	
C[C@H](CO)N1C[C@H](C)[C@@H](CN(C)Cc2ccc(Oc3ccccc3)cc2)Oc2cc(Br)ccc2S1(=O)=O		inactive: -17.9%

SMILES	Potency	activity change, negative = inhibition
COc1ccc(/C=N\Nc2ccccc2[N+](=O)[O-])c(C(=O)O)c1OC	inconclusive [inhibitor, partial curve]	
Fc1ccc(COc2ccccc2CNCc2ccncc2)cc1		inactive: -4.84%
O=C(CN1CCOCC1)c1cccc2ccccc12	inconclusive [inhibitor, single point]	
CCOc1ccc(NC(=O)c2ccc(NC(=O)COC(=O)Cc3ccccc3)cc2)cc1		inactive: 10.2%
O=[N+]([O-])c1ccccc1-c1ccc(CN2CCN(c3ccccc3)CC2)o1	inconclusive [inhibitor, single point]	
COc1ccc(N=Nc2nc3cc(Br)c(Br)cc3n2C)c(OC)c1	inconclusive [inhibitor, partial curve]	
CC1=C(C(=O)N(C(C)C)C(C)C)CC(CC(=O)NCc2ccco2)C(=O)N1CCC1=CCCCC1 (stereo unspecified)		inactive: -3.71%
Cc1nc(N2CCN(Cc3ccccc3)CC2)nc2c1CCC2	inconclusive [inhibitor, partial curve, poor fit]	
CCCc1ccc(OCc2ccc(C(=O)N3CCN(c4ccccn4)CC3)o2)c(OC)c1		inactive: -19.7%
COc1cc(CN2CCCCCC2)c([N+](=O)[O-])cc1OC		inactive: -4.85%
Cc1ccccc1N1CCN(C(=S)c2ccc(-c3ccc([N+](=O)[O-])cc3)o2)CC1	inconclusive [inhibitor, partial curve]	
CCOC(=O)n1c(=O)n(Cc2ccccc2)c2ccccc21	inconclusive [inhibitor, partial curve]	
COc1ccccc1CN1CCSCC1	inconclusive [inhibitor, partial curve]	
CN(C(=O)Cc1c[nH]c2ccccc12)C(C(=O)Nc1ccc2c(c1)OCO2)c1ccccc1 (stereo unspecified)	inconclusive [inhibitor, single point]	
Cc1ccc(OCCN2CCNCC2)c([N+](=O)[O-])c1		inactive: -28.6%
CC1=NN(c2ccc(C)cc2)C(=O)/C1=C\C=C\c1ccccc1	inconclusive [inhibitor, full curve]	
CCCCC1=CC2=C(c3ccco3)C(=O)C(C)(OC(=O)c3ccc(OC)cc3)C(=O)C2=CN1c1ccc(OC)cc1 (stereo unspecified)	inconclusive [inhibitor, single point]	
CCCCC(CC)C(=O)Nc1cc(C(=O)NCc2ccc(C)cc2)ccc1N1CCC2(CC1)CC(c1cccc(Br)c1)=NO2 (stereo unspecified)		inactive: -2.56%
Cn1nc(-c2ccc(Cl)cc2)cc1NC(=O)CSCC(=O)O		inactive: 17.7%
CC1c2c([nH]c3ccccc23)CCC1C(=O)O (stereo unspecified)		inactive: -2.88%
Cc1ccc(OCCCN2CCOCC2)cc1	inconclusive [inhibitor, single point]	
CC1=NN(c2ccccc2)C(=O)/C1=C/C=C/c1ccc(N(C)C)cc1	active: 1.41 µM	
N#CC[C@H](Cc1ccccc1)N1CCN(Cc2ccccc2)CCC1=O		inactive: -2.68%
Cc1c(N)c(C(C)(C)C)cc(C(C)(C)C)c1[N+](=O)[O-]	inconclusive [inhibitor, single point]	

SMILES	Potency	activity change, negative = inhibition
COc1cc(CNc2ccc(N3CCOCC3)cc2)cc(Br)c1OC	inconclusive [inhibitor, partial curve]	
CCC(C)NC(=O)/C=C/c1ccc(S(=O)(=O)NCc2ccco2)cc1 (stereo unspecified)	inconclusive [inhibitor, partial curve]	
CCOCCOc1nc(C)cc(C)c1S(=O)(=O)c1ccccc1C	inconclusive [inhibitor, partial curve]	
CCCC(=O)NC(c1ccc(N(C)C)cc1)c1c(O)ccc2ccccc12 (stereo unspecified)	inconclusive [inhibitor, single point]	
Cc1ccc(N2CCN(C(=O)C(=O)c3cccc([N+](=O)[O-])c3)CC2)cc1	inconclusive [inhibitor, partial curve]	
CC1CC2(CCCC2)N(C(=O)N(C)C)c2ccc(F)cc21 (stereo unspecified)		inactive: -0.826%
CC(C(=O)Nc1ccc2c(c1)OCO2)N1CCC(N2CCCCC2)CC1 (stereo unspecified)	inconclusive [inhibitor, single point]	
CCN(CC)S(=O)(=O)c1ccc(/C=C/C(=O)O)cc1		inactive: -1.65%
COc1ccccc1NC1=C(Cl)C(=O)N(C2CCCCC2)C1=O	inconclusive [inhibitor, single point]	
COc1ccc(CN2CCN(Cc3cccc(Oc4ccccc4)c3)CC2)c(OC)c1OC	inconclusive [inhibitor, partial curve]	
O=C(O)c1ccnc(C(=O)O)c1	inconclusive [inhibitor, single point]	
CSc1nccc(N2CCN(c3ccc(F)cc3)CC2)n1	inconclusive [inhibitor, single point]	
CCOC(=O)CCCCC(=O)c1[nH]c(=O)[nH]c1CSc1nc(C)cc(=O)[nH]1	inconclusive [inhibitor, single point]	
Cc1ccc(-c2nn(-c3ccccc3)cc2/C=C(\C#N)C(=O)NCc2ccccc2)cc1	inconclusive [inhibitor, full curve, poor fit]	
S=C(c1cn(Cc2ccccc2)c2ccccc12)N1CCOCC1	inconclusive [inhibitor, single point]	
CN1OC[C@@H]2CN(Cc3ccc(Cl)cc3)[C@H](c3cccc(Br)c3)C[C@@H]21	inconclusive [inhibitor, partial curve]	
CCN(C(=O)C1CCN(c2nc(-c3ccc(OC)cc3)no2)CC1)c1ccc(OC)cc1		inactive: -16.8%
COc1ccc(-c2cc3ccccc3nc2N)cc1OC		inactive: 0%
O=C(NCC(c1ccc(F)cc1)N1CCOCC1)c1ccc(C(=O)c2ccccc2)cc1 (stereo unspecified)	inconclusive [inhibitor, partial curve]	
COc1ccccc1-n1c(Cc2cccs2)n[nH]c1=S		inactive: -25.9%
O=C(N1CCN(c2ccccc2)CC1)C12CC3CC(CC(C3)C1)C2	inconclusive [inhibitor, partial curve]	
Cc1ccc(C(=O)NCC(=O)OC(C)C(=O)Nc2ccc(N(C)C)cc2)cc1C (stereo unspecified)	inconclusive [inhibitor, partial curve]	
CSc1ccc(CN2CCc3c([nH]c4ccccc34)C2)cc1	inconclusive [inhibitor, partial curve]	

— PubChem BioAssay AID720542 (National Center for Advancing Translational Sciences (NCATS), 2013)
